Test results from PubChem BioAssay AID434955 (Southern Research Specialized Biocontainment Screening …, 2010).
This is one part of the list. Further columns of the screen follow, without active or inactive calls. Most of these compounds were active or inconclusive in the main read-out, so they are no random draw.

Assay: beta-lactam sensitization of Mtb H37Rv, H37Rv (AID 434955);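 note: growth measured after seven days incubation then overnight dye step; 0% = bacteria only wells and 100% = bacteria with antibiotic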
Details: M. tuberculosis H37Rv growth with meropenem, percent inhibition; measured here: primary screen without meropenem; at 25 µM

With `Cc1c(CC(=O)O)c(=O)oc2c(C)c3occ(-c4ccc(Br)cc4)c3cc12` as the compound, how does the inhibition read?
The inhibition was -1.72%.
